Measurements reported in paper PMC12136788.
The other results are listed elsewhere or left out.

B1: chrX:106900062:106900748:-|three_prime_utr|ENSG00000147223|control|control|control (ssRNA)
RNA: GGGAGUUCUACAGUCCGACGAUCGAGGCAGCCAGAGUCUGAUUGGGGUUCAGUUUGUCUGGCAAGUUUUCACAGACAUCAGUUAGCCGGAAGUAUUAGUCCAGCAGAUAGAGCUUUCUGGACUGAAAAUUGGGUCAUCUAGCUCAACAGAGGAUUGAGCAUCA
B2: ENSG00000136451:be:win_2901|3pUTR|ENSG00000136451|bound_else_gene|NA|bound_elsewhere_windowed (ssRNA)
RNA: GGGAGUUCUACAGUCCGACGAUCUCUUUACACCAUCAUGCCACGCAUUGUUUUUAAAGCAUUGCGUUAAAAAAAAAAUUAACUAAACCAAGAUGCUGUGAUUUUUUAAGUUGCAAUAUGUUUUUGGUUUUUUUCAUUUUUUAACAACAGAGGAUUGAGCAUCA
B3: ENSG00000116560:stop:overlap|stop_codon|ENSG00000116560|stop_codon|NA|stop_codon (ssRNA)
RNA: GGGAGUUCUACAGUCCGACGAUCCAGCAGGAUAUGGUAGAGGGAGAGAAGAGUACGAAGGCCCAAACAAAAAACCCCGAUUUUAGAUGUGAUAUUUAGGCUUUCAUUCCAGUUUGUUUUGUUUUUUUGUUUAGAUACCAAUCUCAACAGAGGAUUGAGCAUCA
B4: ENSG00000198589:be:win_1601|CDS|ENSG00000198589|bound_else_gene|NA|bound_elsewhere_windowed (ssRNA)
RNA: GGGAGUUCUACAGUCCGACGAUCAGUCUUCCAAAUCUCAUGUUAGCAGAGCAGUACUUGAACUUUGCCUUGCAUUUUCAAAAUAUCUGAGUAAUCUGCAGAAUGGGAUGCCCCUGCUCAAGCAAUUGUGUGAUCACGUUCUUCCAACAGAGGAUUGAGCAUCA
B5: chr2:226864888:226864989:+|CDS|ENSG00000144468|unk|total|mutant (ssRNA)
RNA: GGGAGUUCUACAGUCCGACGAUCUGCUGAUGAUUGGCAUUUGUAUUUCAAUAUGGCAUCCAUGCUCUGGAAAGGAAUAAAUCCCGAAAGAAGACUGGGAAGCCGAUGGUUUGCCUAUGUUAUCACCGCAUUUUCUGUACUUACCAACAGAGGAUUGAGCAUCA
B6: chr4:24540214:24540319:-|CDS|ENSG00000109606|unk|total|mutant (ssRNA)
RNA: GGGAGUUCUACAGUCCGACGAUCUACUUUGUCACAUUUUUGCUUGCUUAAGGCACCGUGUCUAACCGAUUGUCUUUUACCACCCGCUCCUGAAACUCUGAUGAGAGCCCUGGAACUUUUGAAUUACCUGGCUGCUUUAAAUGACAACAGAGGAUUGAGCAUCA
B7: chr1:84929557:84929679:-|CDS|ENSG00000153898|control|control|control (ssRNA)
RNA: GGGAGUUCUACAGUCCGACGAUCAAAUUCCAACAGAAUGGGUUUCCUGAAACGGAUUUGCAGGAAUUCCUGAAGGAAUGCAGUAGCAAAGAAGAGUAUCAGAAAGAGUCCUCAGCCUUCCUGUCCUGCAUCUGCUGUCGGAGGCAACAGAGGAUUGAGCAUCA
B8: ENSG00000198589:be:win_1451|CDS|ENSG00000198589|bound_else_gene|NA|bound_elsewhere_windowed (ssRNA)
RNA: GGGAGUUCUACAGUCCGACGAUCAUUACAGGCAAUAUUUGUCUGAUGAGAUUGAUUUGACUAUAUGUUCAACCUUGCUGGCCUUUAUCAUGGAAUUGUUGAAGAACUCAAUUGCUAUGCAGGAACAGAUGCUUGCCUGUAAGGCAACAGAGGAUUGAGCAUCA
B9: chr9:88477803:88477904:+|3pUTR|ENSG00000106723|msi1|total|mutant (ssRNA)
RNA: GGGAGUUCUACAGUCCGACGAUCGACAAUACAAGACAUGAAUCUAUGUAUAAAAUUUAUCGGCCUUUCUCAUUUACCUGCUCCCGUAUUAUUGUAUUGUGUGUGCGUGCGUGUGUGAUGUCAGGCUGCCACGUAAAACUUCAGCAACAGAGGAUUGAGCAUCA
B10: chr9:34253332:34253433:-|3pUTR|ENSG00000186638|unk|total|mutant (ssRNA)
RNA: GGGAGUUCUACAGUCCGACGAUCCUCUGAAACAGAAUUCACACACAAACCUUCAGCCAAGUUCUGCCUGCUGUGUAUCUUUUCCGCAGGAAGCAGCUCAGGACAGGGAAGACAAAGCCGCCUCCAGGUGCCAAUUACUUUAAACAACAGAGGAUUGAGCAUCA
B11: chr3:31636526:31636632:+|3pUTR|ENSG00000163527|unk|total|mutant (ssRNA)
RNA: GGGAGUUCUACAGUCCGACGAUCCAAAAUGUGAUGAGAGCUUCUUGAACCGGUAAACCCGUACAGGUCUGAGAAAGACAUAUCCGAAGAAUCAUUAUACUUCCUUGAAUUAUAUUUAUUUUCAUGUUUCUCUAAUGCAAAGAACAACAGAGGAUUGAGCAUCA
B12: ENSG00000198589:be:win_2951|CDS|ENSG00000198589|bound_else_gene|NA|bound_elsewhere_windowed (ssRNA)
RNA: GGGAGUUCUACAGUCCGACGAUCAUUUCACCACAAAUGGUAAUGAAAAUUCAAGUAUAGAGAAGACAAGUUCACUAGAAUCUGCAUCUAAUAUUGAACUGCAAACUACUAAUACAUCUUAUGAAGAAAUGAAAGCUGAGCAAGCAACAGAGGAUUGAGCAUCA
B13: chr10:116663695:116664169:-|three_prime_utr|ENSG00000165863|control|control|control (ssRNA)
RNA: GGGAGUUCUACAGUCCGACGAUCCUUUCCUUCCUACUACCGUUUUAAAAAGGGGAUGAAAUGUUUGCAGUGGCCUUUCUGCUUAGCUGGGCCAGCUCCCUGCAACUCACACGGACGGUUCCUCUCCUAGAUGGAAGCUGCCCUCAACAGAGGAUUGAGCAUCA
B14: chr3:141443649:141443750:+|CDS|ENSG00000177311|unk|total|mutant (ssRNA)
RNA: GGGAGUUCUACAGUCCGACGAUCCCUACCAUUGGACAAAAUGGAGGUUCAUUCACAGGUCCAGAACCUUUAUUAUCUGAAAACCGGAUUGGUGAAUUUUCCAGUACCGGAAGUACUUUGCCAGACACGGACCACAUGGUUAAACAACAGAGGAUUGAGCAUCA
B15: chr19:36009119:36009553:-|three_prime_utr|ENSG00000239382|control|control|control (ssRNA)
RNA: GGGAGUUCUACAGUCCGACGAUCGCUGGUGCUCCGCGGCCCCGCCUACACGCGUCUUCUCCACGGCAUCGCCGCCGCCCGCGUAGACGCGCUGGACGCCGCCUCCUCGCCGCCCAAUGCGGCAGCCUGCCCGUCGGCGCGGCCCAACAGAGGAUUGAGCAUCA
B16: ENSG00000087460:stop:overlap|stop_codon|ENSG00000087460|stop_codon|NA|stop_codon (ssRNA)
RNA: GGGAGUUCUACAGUCCGACGAUCGAGGCGCCUUCGGCUCGGGCCAUGGCGCCCGGCGCCGGGGGCGCGAGGAGCGGCUCAUCUAGUCAGACCCCCCACCCCGCCACCGCCACCAGACACCACCAUCGCUGUGUAGUGUGCUGGCAACAGAGGAUUGAGCAUCA
B17: ENSG00000107863:be:win_5051|CDS|ENSG00000107863|bound_else_gene|NA|bound_elsewhere_windowed (ssRNA)
RNA: GGGAGUUCUACAGUCCGACGAUCGUUUAGAUAGCCGGAGACAGCUCUUCAGUUCCCAUAAACUCAUCGAAUGUGAUACUCUUUCCAGGAAAAAAUCAGCUAGAUUCAAGUCAGAUAGUGGAAGUCUAGGAGAUGCCAAGAAUGCAACAGAGGAUUGAGCAUCA
B18: chr3:127036549:127036650:+|3pUTR|ENSG00000114554|msi1|total|mutant (ssRNA)
RNA: GGGAGUUCUACAGUCCGACGAUCGUCUACUGGGACAGCAGUCUCCGAGCUACUCCGUACCUCCCUCUGCCAGGUCGUGGAGUCCGGCCCCAGUCCCUACUUGUCACUGGUUCCCACUGUGCUCCUAACUGUGCAGCACCUGGGCAACAGAGGAUUGAGCAUCA
B19: chr12:39550845:39550946:-|3pUTR|ENSG00000173208|unk|FALSE|unique (ssRNA)
RNA: GGGAGUUCUACAGUCCGACGAUCGGUUCCAAGUAUAGUUUCAUAUUUGGCAAUAGAUUCAUCUUAUUCUAAUAUGUUUGGAAUAGCUUUUUGAUUCAAUGAGUCUAGGAAAAUCUGUUACACAUUGAAACCCAAGUCCAGAGACAACAGAGGAUUGAGCAUCA
B20: chr11:74334375:74334476:-|3pUTR|ENSG00000165434|msi1|total|mutant (ssRNA)
RNA: GGGAGUUCUACAGUCCGACGAUCUUUUUGUUUUAUUUUUAAAAUGUGUAAAACAUCUUUUGUUUUAUAUGCUUUUAAGAAUGCCGAUUGUAAUUCCGGAAAUGGCAUAUAUUCUGCAAAGUGGUAUAAUGUUGUAUAUAUGAACAACAGAGGAUUGAGCAUCA
B21: chr17:8173470:8173636:-|3pUTR|ENSG00000179029|msi1|total|mutant (ssRNA)
RNA: GGGAGUUCUACAGUCCGACGAUCUGUUUGUCUGUAUCGUCAGGUGGGAUAAUCCUUACCUGUUCCUCCUCCGGAGGGCAGAUCCGAACAUGAUGAUUGGAGAUGCAUGAAACGUGAUUAACGUCUCUGCGUAAUCAGGACUUGCAACAGAGGAUUGAGCAUCA
B22: chr22:24226630:24226767:-|CDS|ENSG00000099998|control|control|control (ssRNA)
RNA: GGGAGUUCUACAGUCCGACGAUCCUUCUCAACAGAGUCUAUGGCCAGGCCUGAAGGGAGGGUGAACGUGUACCACCACCUUGUAGAGACGCUCAAGUUUGCCAAGGGGCAGAGGUGGAGGCUGGGGGACCCUCGAAGCCACCCCAACAGAGGAUUGAGCAUCA

These binders were tested against T1, UNK ZnF1-6 (called full-length) (human, UniProt Q9C0B0 30-357) (assay: nsRBNS (natural sequence RNA bind-n-seq); RBNS binding buffer (assumed for nsRBNS): 25 mM Tris pH 7.5, 150 mM KCl, 3 mM MgCl2, 0.01% Triton X-100, 500 ug/ml BSA, 20 U/ml SUPERase-In, 4 C; UNK is unkempt and MSI1 is Musashi-1; names of the RNAs are library labels; protein concentration not given here; high values mean tight binding).
T1 sequence: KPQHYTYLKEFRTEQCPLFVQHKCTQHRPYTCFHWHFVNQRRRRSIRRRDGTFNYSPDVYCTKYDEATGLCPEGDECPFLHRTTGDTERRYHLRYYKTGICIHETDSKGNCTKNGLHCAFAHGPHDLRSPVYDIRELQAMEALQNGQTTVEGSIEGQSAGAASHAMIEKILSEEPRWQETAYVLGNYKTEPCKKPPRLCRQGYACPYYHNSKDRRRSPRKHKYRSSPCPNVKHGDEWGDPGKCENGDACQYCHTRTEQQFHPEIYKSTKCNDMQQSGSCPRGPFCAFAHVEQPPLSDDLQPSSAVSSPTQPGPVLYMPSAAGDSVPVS
B1 gave a binding signal of 0.809 enrichment R. For B2, the binding signal was 0.398 enrichment R. Binder B3 has a binding signal of 0.62 enrichment R. B4 showed a binding signal of 0.296 enrichment R. Work on B5 yielded a binding signal of 0.31 enrichment R. Binder B6 has a binding signal of 0.373 enrichment R. With B7 the binding signal was 0.792 enrichment R. B8 showed a binding signal of 0.223 enrichment R. In the case of B9, the binding signal is reported as 0.552 enrichment R. Binder B10 has a binding signal of 0.674 enrichment R. Binder B11 has a binding signal of 0.279 enrichment R. B12 was tested, and the binding signal was 0.382 enrichment R. Work on B13 yielded a binding signal of 0.719 enrichment R. B14 gave a binding signal of 0.452 enrichment R. With B15 the binding signal was 0.625 enrichment R. Binder B16 has a binding signal of 0.557 enrichment R. B17 showed a binding signal of 0.645 enrichment R. B18 showed a binding signal of 0.724 enrichment R. B19 showed a binding signal of 0.359 enrichment R. In the case of B20, the binding signal is reported as 0.345 enrichment R. In the case of B21, the binding signal is reported as 0.686 enrichment R. Work on B22 yielded a binding signal of 1.02 enrichment R.
